Reference: patent US20230131056A1 (Stanford University, published 2023)
Residue numbers refer to the chain shown, from its start. Blank lines part the entries; values can stand above or below the binder they belong to.

What was measured:
[1] = molecular target: T1, human PD-L2 on cells (Hep3B-hPDL2 cells; MC38-hPD-L2 cells) (human, UniProt Q9BQ51 20-273); assay: FACS on Hep3b-hPDL2 cells (legend paragraph 66; paragraph 459 names MC38-PD-L2), anti-human IgG-Alexa 488 detection
T1 construct: whole, on cells; also called Hep3B-OS8-hPD-L2; MC38-PD-L2
T1 sequence (looked up): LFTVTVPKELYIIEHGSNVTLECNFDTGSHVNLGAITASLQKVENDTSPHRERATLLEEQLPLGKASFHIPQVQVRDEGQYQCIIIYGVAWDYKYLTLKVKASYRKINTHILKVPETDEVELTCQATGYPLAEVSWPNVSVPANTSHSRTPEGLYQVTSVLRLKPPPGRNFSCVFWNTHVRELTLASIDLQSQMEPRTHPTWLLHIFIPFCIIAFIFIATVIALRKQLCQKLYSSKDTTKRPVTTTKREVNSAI

[2] = molecular target: T1, human PD-L2 on cells (Hep3B-hPDL2 …); assay: FACS binding on Hep3B-OS8-hPDL2 cells, detection with anti-human IgG-Alexa 488
[3] = molecular target: T2, mouse PD-L1 on parental MC38 cells (mouse, UniProt Q9EP73); assay: FACS on parental MC38 cells (express mouse PD-L1 and mouse PD-L2), anti-human IgG-Alexa 488 detection
T2 construct: whole, on cells; the signal cannot be split between the two ligands; also called MC38 parental cells
T2 sequence (Q9EP73 19-290): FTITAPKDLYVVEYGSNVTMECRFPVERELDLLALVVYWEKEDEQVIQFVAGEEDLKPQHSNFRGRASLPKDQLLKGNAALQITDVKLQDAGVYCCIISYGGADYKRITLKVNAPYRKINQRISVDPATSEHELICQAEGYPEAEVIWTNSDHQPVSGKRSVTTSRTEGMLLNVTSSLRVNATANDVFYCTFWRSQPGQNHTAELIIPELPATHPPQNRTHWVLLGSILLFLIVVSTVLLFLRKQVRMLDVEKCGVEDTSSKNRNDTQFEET

- EC50 (read off the curve) [1]: ~2 nM
- EC50 (read off the curve) [2]: ~4 nM
- binding result [3]: no binding (tested: about 10 uM)
B1: wild type PD-1-Fc fusion protein (Fc fusion)
chain: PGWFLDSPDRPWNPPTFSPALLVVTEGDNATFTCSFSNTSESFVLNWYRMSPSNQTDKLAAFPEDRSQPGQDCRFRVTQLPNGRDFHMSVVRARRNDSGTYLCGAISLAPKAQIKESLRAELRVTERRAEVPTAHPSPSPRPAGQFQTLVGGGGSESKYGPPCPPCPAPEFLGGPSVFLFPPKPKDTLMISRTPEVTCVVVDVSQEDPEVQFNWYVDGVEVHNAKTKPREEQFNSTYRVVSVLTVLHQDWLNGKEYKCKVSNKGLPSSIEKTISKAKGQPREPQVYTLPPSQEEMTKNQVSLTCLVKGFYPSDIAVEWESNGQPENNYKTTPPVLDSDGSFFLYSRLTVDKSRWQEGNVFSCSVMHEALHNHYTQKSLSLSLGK
notes: also called WT PD-1-Fc fusion protein; parent Fc fusion protein

- EC50 (read off the curve) [3]: ~0.2 nM
B2: sPD-1 variant version 2-Fc fusion protein (Fc fusion)
chain: PGWFLDSPDRPWNPPTFSPALLVVTEGDNATFTCSFSNTSEGFVLNWYRMSPSNQTDKLAAFPEDRGQLGQDCRFRVTQLPNGRDFHMSVVRARRNDSGTYLCSAIVLAPKIQIKESLRVELRVTERRAEVPTAHPSPSPRPAGQFQTLVGGGGS[human IgG4 Fc with S228P (EU numbers) not printed]
notes: also called sPD-1 mutant version 2; sPD-1 mutant V2

- EC50 (read off the curve) [3]: ~0.2 nM
B3: sPD-1 variant version 1-Fc fusion protein (Fc fusion)
chain: B2 chain with N96S
notes: also called sPD-1 mutant version 1; sPD-1 mutant V1
